For 63 sequences, binding signal (RPM ratio (pull-down/input)) results are on record in publication PMC12820563.

The list shows a part of the results. The list includes weakly bound sequences.

The assay deals with T1, MBP-FoxP3dN (UniProt Q99JB6).
T1 sequence: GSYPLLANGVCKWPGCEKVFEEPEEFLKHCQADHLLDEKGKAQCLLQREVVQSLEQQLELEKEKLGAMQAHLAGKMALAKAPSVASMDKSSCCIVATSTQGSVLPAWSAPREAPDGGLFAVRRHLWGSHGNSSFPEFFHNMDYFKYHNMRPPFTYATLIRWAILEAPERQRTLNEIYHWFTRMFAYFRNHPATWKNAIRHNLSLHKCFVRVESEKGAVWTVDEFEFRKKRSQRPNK
The assay is described as follows: PD-seq (MBP pull-down with sequencing). The note with it: 20 mM Tris-HCl pH 7.5, 100 mM NaCl, 1.5 mM MgCl2, 0.4 uM protein, 0.1 uM dsDNA library, 30 min, room temperature, amylose pull-down; high values mean tight binding; double strand, one strand shown.
In the case of “GATGATTGTTCTCCCAGCTGATGAATTTCTGCTATCGAGTAAACAAATTTTCCTAATCTTTCTGTTCAAGCGCCATCTAC”, the binding signal (RPM ratio (pull-down/input)) amounted to 0.604.
As for “GATGATTGTTCTCCCAGCTGATGAATTACGCGTGTCGAGTAAACAAATTTTCCTAATCTTTCTGTTCAAGCGCCATCTAC”, the binding signal (RPM ratio (pull-down/input)) was determined as 4.31.
To “GATGATTGTTCTCCCAGCTGATGAATTTCGATCCTCGAGTAAACAAATTTTCCTAATCTTTCTGTTCAAGCGCCATCTAC” belongs 0.432.
On to “GATGATTGTTCTCCCAGCTGATGAATTGTTAAAGTCGAGTAAACAAATTTTCCTAATCTTTCTGTTCAAGCGCCATCTAC”, for which the binding signal (RPM ratio (pull-down/input)) was 0.28.
Take “GATGATTGTTCTCCCAGCTGATGAATTCGTCCTATCGAGTAAACAAATTTTCCTAATCTTTCTGTTCAAGCGCCATCTAC”: the binding signal (RPM ratio (pull-down/input)) was determined as 0.644.
For “GATGATTGTTCTCCCAGCTGATGAATTAGCACTCTCGAGTAAACAAATTTTCCTAATCTTTCTGTTCAAGCGCCATCTAC” the value was 0.493; for “GATGATTGTTCTCCCAGCTGATGAATTACCGGAATCGAGTAAACAAATTTTCCTAATCTTTCTGTTCAAGCGCCATCTAC”, 0.214.
To “GATGATTGTTCTCCCAGCTGATGAATTGTATCAGTCGAGTAAACAAATTTTCCTAATCTTTCTGTTCAAGCGCCATCTAC” belongs 1.09.
For “GATGATTGTTCTCCCAGCTGATGAATTGATGCTGTCGAGTAAACAAATTTTCCTAATCTTTCTGTTCAAGCGCCATCTAC” the value was 2.03.
For the sequence “GATGATTGTTCTCCCAGCTGATGAATTAATGACCTCGAGTAAACAAATTTTCCTAATCTTTCTGTTCAAGCGCCATCTAC”, the binding signal (RPM ratio (pull-down/input)) amounted to 0.385.
To “GATGATTGTTCTCCCAGCTGATGAATTTGTTACATCGAGTAAACAAATTTTCCTAATCTTTCTGTTCAAGCGCCATCTAC” belongs 2.88; to “GATGATTGTTCTCCCAGCTGATGAATTCGGTGATTCGAGTAAACAAATTTTCCTAATCTTTCTGTTCAAGCGCCATCTAC”, 1.06; to “GATGATTGTTCTCCCAGCTGATGAATTCAGATCTTCGAGTAAACAAATTTTCCTAATCTTTCTGTTCAAGCGCCATCTAC”, 0.25.
To “GATGATTGTTCTCCCAGCTGATGAATTGATGTAATCGAGTAAACAAATTTTCCTAATCTTTCTGTTCAAGCGCCATCTAC” belongs 1.25.
To “GATGATTGTTCTCCCAGCTGATGAATTCCCCTTATCGAGTAAACAAATTTTCCTAATCTTTCTGTTCAAGCGCCATCTAC” belongs 0.349; to “GATGATTGTTCTCCCAGCTGATGAATTCTAAGTCTCGAGTAAACAAATTTTCCTAATCTTTCTGTTCAAGCGCCATCTAC”, 0.36; to “GATGATTGTTCTCCCAGCTGATGAATTAAGCGTCTCGAGTAAACAAATTTTCCTAATCTTTCTGTTCAAGCGCCATCTAC”, 3.79.
As for “GATGATTGTTCTCCCAGCTGATGAATTGAAGAGCTCGAGTAAACAAATTTTCCTAATCTTTCTGTTCAAGCGCCATCTAC”, the binding signal (RPM ratio (pull-down/input)) was determined as 0.196.
To “GATGATTGTTCTCCCAGCTGATGAATTAAACTCCTCGAGTAAACAAATTTTCCTAATCTTTCTGTTCAAGCGCCATCTAC” belongs 0.338.
To “GATGATTGTTCTCCCAGCTGATGAATTTTCTATCTCGAGTAAACAAATTTTCCTAATCTTTCTGTTCAAGCGCCATCTAC” belongs 0.305.
Consider “GATGATTGTTCTCCCAGCTGATGAATTTAAGATTTCGAGTAAACAAATTTTCCTAATCTTTCTGTTCAAGCGCCATCTAC”, for which the binding signal (RPM ratio (pull-down/input)) came to 0.304.
Regarding “GATGATTGTTCTCCCAGCTGATGAATTTTCAGCATCGAGTAAACAAATTTTCCTAATCTTTCTGTTCAAGCGCCATCTAC”, the binding signal (RPM ratio (pull-down/input)) is 0.775.
To “GATGATTGTTCTCCCAGCTGATGAATTCTTATTCTCGAGTAAACAAATTTTCCTAATCTTTCTGTTCAAGCGCCATCTAC” belongs 0.431; to “GATGATTGTTCTCCCAGCTGATGAATTCTGCTTTTCGAGTAAACAAATTTTCCTAATCTTTCTGTTCAAGCGCCATCTAC”, 3.35.
To “GATGATTGTTCTCCCAGCTGATGAATTGATAGCGTCGAGTAAACAAATTTTCCTAATCTTTCTGTTCAAGCGCCATCTAC” belongs 0.771.
To “GATGATTGTTCTCCCAGCTGATGAATTCCCTATATCGAGTAAACAAATTTTCCTAATCTTTCTGTTCAAGCGCCATCTAC” belongs 0.309.
Consider “GATGATTGTTCTCCCAGCTGATGAATTATTGGCCTCGAGTAAACAAATTTTCCTAATCTTTCTGTTCAAGCGCCATCTAC”, for which the binding signal (RPM ratio (pull-down/input)) came out at 0.803.
To “GATGATTGTTCTCCCAGCTGATGAATTTCTGGAATCGAGTAAACAAATTTTCCTAATCTTTCTGTTCAAGCGCCATCTAC” belongs 0.186; to “GATGATTGTTCTCCCAGCTGATGAATTTCCCCGATCGAGTAAACAAATTTTCCTAATCTTTCTGTTCAAGCGCCATCTAC”, 0.178.
On to “GATGATTGTTCTCCCAGCTGATGAATTGCCTACCTCGAGTAAACAAATTTTCCTAATCTTTCTGTTCAAGCGCCATCTAC”, for which the binding signal (RPM ratio (pull-down/input)) amounted to 0.549.
Take “GATGATTGTTCTCCCAGCTGATGAATTGTAACAGTCGAGTAAACAAATTTTCCTAATCTTTCTGTTCAAGCGCCATCTAC”: the binding signal (RPM ratio (pull-down/input)) is 0.73.
For the sequence “GATGATTGTTCTCCCAGCTGATGAATTGGGCCCCTCGAGTAAACAAATTTTCCTAATCTTTCTGTTCAAGCGCCATCTAC”, the binding signal (RPM ratio (pull-down/input)) was 0.951.
“GATGATTGTTCTCCCAGCTGATGAATTCTGCGCCTCGAGTAAACAAATTTTCCTAATCTTTCTGTTCAAGCGCCATCTAC”: the binding signal (RPM ratio (pull-down/input)) is 2.3.
For “GATGATTGTTCTCCCAGCTGATGAATTCTAGCTGTCGAGTAAACAAATTTTCCTAATCTTTCTGTTCAAGCGCCATCTAC” the value was 0.392.
To “GATGATTGTTCTCCCAGCTGATGAATTAGGCCTGTCGAGTAAACAAATTTTCCTAATCTTTCTGTTCAAGCGCCATCTAC” belongs 3.91; to “GATGATTGTTCTCCCAGCTGATGAATTAAGTGTTTCGAGTAAACAAATTTTCCTAATCTTTCTGTTCAAGCGCCATCTAC”, 1.87.
For “GATGATTGTTCTCCCAGCTGATGAATTAGCAATCTCGAGTAAACAAATTTTCCTAATCTTTCTGTTCAAGCGCCATCTAC” the value was 1.48.
On to “GATGATTGTTCTCCCAGCTGATGAATTGGTACGGTCGAGTAAACAAATTTTCCTAATCTTTCTGTTCAAGCGCCATCTAC”, for which the binding signal (RPM ratio (pull-down/input)) is 0.366.
To “GATGATTGTTCTCCCAGCTGATGAATTGTTTCGGTCGAGTAAACAAATTTTCCTAATCTTTCTGTTCAAGCGCCATCTAC” belongs 0.842.
For “GATGATTGTTCTCCCAGCTGATGAATTGACGTAGTCGAGTAAACAAATTTTCCTAATCTTTCTGTTCAAGCGCCATCTAC” the value was 0.381.
For “GATGATTGTTCTCCCAGCTGATGAATTTTGCATTTCGAGTAAACAAATTTTCCTAATCTTTCTGTTCAAGCGCCATCTAC” the value was 6.44.
As to “GATGATTGTTCTCCCAGCTGATGAATTTAATGACTCGAGTAAACAAATTTTCCTAATCTTTCTGTTCAAGCGCCATCTAC”, the binding signal (RPM ratio (pull-down/input)) came out at 1.9.
“GATGATTGTTCTCCCAGCTGATGAATTGCGATCATCGAGTAAACAAATTTTCCTAATCTTTCTGTTCAAGCGCCATCTAC”: the binding signal (RPM ratio (pull-down/input)) was 0.941.
For “GATGATTGTTCTCCCAGCTGATGAATTTTCATGTTCGAGTAAACAAATTTTCCTAATCTTTCTGTTCAAGCGCCATCTAC” the value was 0.51; for “GATGATTGTTCTCCCAGCTGATGAATTATTCAATTCGAGTAAACAAATTTTCCTAATCTTTCTGTTCAAGCGCCATCTAC”, 0.399.
To “GATGATTGTTCTCCCAGCTGATGAATTATAGAGTTCGAGTAAACAAATTTTCCTAATCTTTCTGTTCAAGCGCCATCTAC” belongs 0.418.
With “GATGATTGTTCTCCCAGCTGATGAATTTCCACTGTCGAGTAAACAAATTTTCCTAATCTTTCTGTTCAAGCGCCATCTAC”, the binding signal (RPM ratio (pull-down/input)) worked out at 0.273.
To “GATGATTGTTCTCCCAGCTGATGAATTAAACGTGTCGAGTAAACAAATTTTCCTAATCTTTCTGTTCAAGCGCCATCTAC” belongs 0.457; to “GATGATTGTTCTCCCAGCTGATGAATTGAATCCGTCGAGTAAACAAATTTTCCTAATCTTTCTGTTCAAGCGCCATCTAC”, 0.293; to “GATGATTGTTCTCCCAGCTGATGAATTACTGAGGTCGAGTAAACAAATTTTCCTAATCTTTCTGTTCAAGCGCCATCTAC”, 0.248.
To “GATGATTGTTCTCCCAGCTGATGAATTCTGATAATCGAGTAAACAAATTTTCCTAATCTTTCTGTTCAAGCGCCATCTAC” belongs 0.377; to “GATGATTGTTCTCCCAGCTGATGAATTCGAGGGGTCGAGTAAACAAATTTTCCTAATCTTTCTGTTCAAGCGCCATCTAC”, 0.349; to “GATGATTGTTCTCCCAGCTGATGAATTAGGTACGTCGAGTAAACAAATTTTCCTAATCTTTCTGTTCAAGCGCCATCTAC”, 0.514.
To “GATGATTGTTCTCCCAGCTGATGAATTGACCTATTCGAGTAAACAAATTTTCCTAATCTTTCTGTTCAAGCGCCATCTAC” belongs 0.354; to “GATGATTGTTCTCCCAGCTGATGAATTGTCATTGTCGAGTAAACAAATTTTCCTAATCTTTCTGTTCAAGCGCCATCTAC”, 1.19; to “GATGATTGTTCTCCCAGCTGATGAATTTCGCCGCTCGAGTAAACAAATTTTCCTAATCTTTCTGTTCAAGCGCCATCTAC”, 2.15.
On to “GATGATTGTTCTCCCAGCTGATGAATTACGCTGGTCGAGTAAACAAATTTTCCTAATCTTTCTGTTCAAGCGCCATCTAC”, for which the binding signal (RPM ratio (pull-down/input)) was found to be 0.673.
For “GATGATTGTTCTCCCAGCTGATGAATTGACCCCTTCGAGTAAACAAATTTTCCTAATCTTTCTGTTCAAGCGCCATCTAC” the value was 0.322; for “GATGATTGTTCTCCCAGCTGATGAATTGAACTATTCGAGTAAACAAATTTTCCTAATCTTTCTGTTCAAGCGCCATCTAC”, 0.352; for “GATGATTGTTCTCCCAGCTGATGAATTCACATTATCGAGTAAACAAATTTTCCTAATCTTTCTGTTCAAGCGCCATCTAC”, 0.627.
For “GATGATTGTTCTCCCAGCTGATGAATTGGATCGATCGAGTAAACAAATTTTCCTAATCTTTCTGTTCAAGCGCCATCTAC” the value was 0.227.
To “GATGATTGTTCTCCCAGCTGATGAATTGGTCCACTCGAGTAAACAAATTTTCCTAATCTTTCTGTTCAAGCGCCATCTAC” belongs 0.387.
For the sequence “GATGATTGTTCTCCCAGCTGATGAATTAGCATTCTCGAGTAAACAAATTTTCCTAATCTTTCTGTTCAAGCGCCATCTAC”, the binding signal (RPM ratio (pull-down/input)) is 4.37.
